# Inconclusive means that the source gave no clear call. Such entries were picked first, then a sample of the others. For part of these data: Where the call is inconclusive, the potency comes from a doubtful curve fit. Calls of active or inactive are those of the source. Unless noted, calls follow the shape of the dose curve; as a rule, active = well fitted curve in the direction sought with a large enough effect in the repeat runs; inconclusive = weak or mixed curves; inactive = no such curve, though single readings can be large; an effect the other way counts as inactive or inconclusive.
# What was measured:
# [1] = biological target: Peroxisome proliferator-activated receptor delta (Homo sapiens) (UniProt Q03181); assay: qHTS assay to identify small molecule agonists of the peroxisome proliferator-activated receptor delta (PPARd) signaling pathway (AID 743212; calls by dose curve;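 also: HEK293H cells with PPARd UAS beta-lactamase reporter GeneBLAzer system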; also: potency is read from the fitted curve at half-maximal effect; as to activation: % is scaled to controls: 0 for no effect and ±100 for the full control effect); details: HEK293H PPARd-UAS-bla, beta-lactamase FRET ratio, 17 h; activation: at 62.6 µM (top of the series) unless noted
# In short: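 Steps: seed PPARd-bla HEK293H cells; incubate 5 h, 37 C, 5% CO2; add compounds in DMSO; incubate, 37 C; add LiveBLAzer B/G FRET substrate; hold 2 h at room temperature; measure fluorescence.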
# [2] = biological target: Peroxisome proliferator-activated receptor delta (Homo sapiens) (UniProt Q03181); assay: qHTS assay to identify small molecule antagonists of the peroxisome proliferator-activated receptor delta (PPARd) signaling pathway (AID 743215; active = well fitted inhibition curve with a large enough effect in the signal ratio in the repeat runs, not every such curve was filed as active; inconclusive = weak or mixed curves, or effect the other way; inactive = no such curve, though single readings can be large or run the other way; the % refers to the signal ratio;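 also: cells stimulated with agonist L165041 at 300 nM final during compound exposure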; also: potency is read from the fitted curve at half-maximal effect); details: HEK293H PPARd-UAS-bla, beta-lactamase FRET ratio, antagonist, 17 h; ratio activity, negative = inhibition: at 62 µM (top of the series) unless noted
# In short: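 Fluorescence from cleaved LiveBLAzer B/G FRET substrate (2 h, room temperature) reports PPARd-driven beta-lactamase in HEK293H UAS-bla cells. Cells had been treated 17 h at 37 C with compound plus 300 nM final L165041.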
# [3] = qHTS assay to identify small molecule agonists of the endoplasmic reticulum stress response signaling pathway (AID 1159516; active = well fitted activation curve with a large enough effect in the signal ratio in the repeat runs, not every such curve was filed as active; inconclusive = weak or mixed curves, or effect the other way; the % refers to the signal ratio; also: potency is read from the fitted curve at half-maximal effect); details: ESRE-bla HeLa, ER stress beta-lactamase reporter, 5 h; activation: at 61 µM (top of the series) unless noted
# In short: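 Beta-lactamase expression from the ER stress response element in HeLa reporter cells is quantified with the LiveBLAzer B/G FRET substrate, read at 405 nm excitation after 2 hr at room temperature, following 5 hr compound treatment at 37 C.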
# [4] = qHTS assay to identify small molecule antagonists of the retinoid-related orphan receptor gamma (ROR-gamma) signaling pathway - cell viability counter screen (AID 1159520); also: nearly all actives have a fitted effect of over 50% in size; also: potency is read from the fitted curve at half-maximal effect
# In short: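 Cytotoxicity was read from cellular ATP (CellTiter-Glo luminescence) after 16 hr at 37 C with 1 uM doxycycline induction. The inducer was added 2 hr after compound transfer to Tet-on ROR gamma CHO cells.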
# [5] = biological target: Retinoic acid receptor RXR-alpha (Homo sapiens) (UniProt P19793); assay: qHTS assay to identify small molecule agonists of the RXR signaling pathway (AID 1159527; calls by dose curve; also: nearly all actives have a fitted effect of over 35% in size; also: potency is read from the fitted curve at half-maximal effect); details: HEK293T RXRa-UAS-bla, beta-lactamase ratio, 16 h; activation: at 76.8 µM (top of the series) unless noted
# In short: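 GeneBLAzer RXR-alpha-UAS-bla HEK 293T cells in medium with 2% charcoal-stripped FBS, pre-incubated 5 hr at 37 C, then exposed to compounds 16 hr. Beta-lactamase reporter read by FRET substrate, 2 hr room temperature, 460/530 nm emission.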
# [6] = qHTS assay to identify small molecule agonists of the farnesoid-X-receptor (FXR) signaling pathway - cell viability counter screen (AID 743218); details: FXR-bla HEK293T viability, CellTiter-Glo luminescence, 16 h; viability change, negative = cytotoxic: at 62.6 µM (top of the series) unless noted; also: potency is read from the fitted curve at half-maximal effect; nearly all actives have a fitted effect of over 45% in size
# In short: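 Readout: CellTiter-Glo luminescence, 30 min RT, multiplexed after the FXR-bla FRET reading. HEK 293T FXR-UAS-bla cells received compound 5 h post-plating and were incubated 16 h at 37 C.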
# [7] = qHTS assay to identify small molecule antagonists of the farnesoid-X-receptor (FXR) signaling pathway - cell viability counter screen (AID 743221; active = well fitted cell-killing curve with a large enough effect in the repeat runs, not every such curve was filed as active; inconclusive = weak or mixed curves, or effect the other way; inactive = no such curve, though single readings can be large or run the other way; also: potency is read from the fitted curve at half-maximal effect; nearly all actives have a fitted effect of over 50% in size); details: FXR-bla HEK293T viability, CellTiter-Glo luminescence, 16 h; activity change, negative = cytotoxicity: at 62.6 µM (top of the series)
# In short: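 FXR-UAS-bla HEK 293T cells were treated with test compounds plus chenodeoxycholic acid (50 uM final) for 16 h at 37 C. Cell viability in the same wells was then read as CellTiter-Glo luminescence after 30 min at room temperature.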
# [8] = biological target: Vitamin D3 receptor (Homo sapiens) (UniProt P11473); assay: qHTS assay to identify small molecule agonists of the vitamin D receptor (VDR) signaling pathway (AID 743222; calls by dose curve; also: % is scaled to controls: 0 for no effect and ±100 for the full control effect); details: HEK293T VDR-UAS-bla, beta-lactamase FRET ratio, 16 h; activation: at 63.5 µM (top of the series) unless noted
# In short: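 Following 4 h attachment at 37C, VDR-bla cells (2,000 per well) received DMSO-dissolved compounds or controls. After 16 h incubation, LiveBLAzer B/G FRET substrate was added and fluorescence read 2 h later at room temperature.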
# [9] = biological target: Vitamin D3 receptor (Homo sapiens) (UniProt P11473); assay: qHTS assay to identify small molecule antagonists of the vitamin D receptor (VDR) signaling pathway (AID 743223; active = well fitted inhibition curve with a large enough effect in the signal ratio in the repeat runs, not every such curve was filed as active; inconclusive = weak or mixed curves, or effect the other way; inactive = no such curve, though single readings can be large or run the other way; the % refers to the signal ratio; also: potency is read from the fitted curve at half-maximal effect); details: VDR-UAS-bla HEK293T, beta-lactamase FRET ratio, 16 h; activity change, negative = inhibition: at 61 µM (top of the series) unless noted
# In short: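 VDR-bla cells were plated, incubated 4 h at 37C, then given compound and 1alpha,25-dihydroxyvitamin D3 (3 nM final). After 16 h at 37C, LiveBLAzer B/G FRET substrate was added for 2 h at room temperature and fluorescence read.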
# [10] = qHTS assay to identify small molecule antagonists of the vitamin D receptor (VDR) signaling pathway - cell viability counter screen (AID 743225); details: VDR-bla HEK293T viability, CellTiter-Glo luminescence, 16 h; viability change, negative = cytotoxic: at 61 µM (top of the series) unless noted; also: nearly all actives have a fitted effect of over 50% in size; also: potency is read from the fitted curve at half-maximal effect
# In short: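 VDR-bla HEK 293T cells, 4 h pre-incubation at 37C, then compound plus 1-alpha,25-dihydroxyvitamin D3 (3 nM final) for 16 h. After the beta-lactamase FRET read, CellTiter-Glo was added to the same wells; luminescence after 30 min at room temperature.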
# [11] = biological target: Nuclear receptor ROR-gamma (Homo sapiens) (UniProt P51449); assay: qHTS assay to identify small molecule antagonists of the retinoid-related orphan receptor gamma (ROR-gamma) signaling pathway (AID 1159521; also: potency is read from the fitted curve at half-maximal effect; nearly all actives have a fitted effect of over 50% in size)
# In short: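 Tet-on RORγ CHO cells carrying a ROR response element–luciferase reporter were pretreated with compounds for 2 h, then induced with 1 uM (final) doxycycline hyclate for 16 h at 37 C. Antagonism was read as decreased ONE-Glo luminescence.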
# [12] = qHTS assay to identify small molecule agonists of the AP-1 signaling pathway - cell viability counter screen (AID 1159525; calls by dose curve; also: potency is read from the fitted curve at half-maximal effect; nearly all actives have a fitted effect of over 55% in size)
# In short: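 Intracellular ATP by Cell Titer Glo luminescence (30 min, RT) in the same ME-180 AP-1-bla wells after the 5 h compound exposure at 37 °C. Normalised to tetra n-octyl ammonium bromide and DMSO controls.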
# [13] = qHTS assay to identify small molecule agonists of the RXR signaling pathway - cell viability counter screen (AID 1159529)
# In short: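 RXR-alpha-UAS-bla HEK 293T cells in medium with 2% charcoal-stripped FBS were preincubated 5 hr, then exposed to compounds for 16 hr at 37 C. Viability was read as CellTiter-Glo luminescence after 30 min at room temperature.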
# [14] = biological target: Bile acid receptor (Homo sapiens) (UniProt Q96RI1); assay: qHTS assay to identify small molecule agonists of the farnesoid-X-receptor (FXR) signaling pathway (AID 743220; active = well fitted activation curve with a large enough effect in the signal ratio in the repeat runs, not every such curve was filed as active; inconclusive = weak or mixed curves, or effect the other way; the % refers to the signal ratio; also: % is scaled to controls: 0 for no effect and ±100 for the full control effect); details: HEK293T FXR-UAS-bla, beta-lactamase FRET ratio, 16 h; activation: at 62.6 µM (top of the series) unless noted
# In short: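 FXR-UAS-bla HEK 293T cells carrying a UAS-driven beta-lactamase reporter were plated for 5 h at 37C/5% CO2, then exposed to DMSO-dissolved Tox21 10K compounds for 16 h at 37C. A LiveBLAzer B/G FRET substrate was loaded for 2 h at room temperature before fluorescence reading.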
# [15] = qHTS assay to identify small molecule agonists of the AP-1 signaling pathway (AID 1159526; calls by dose curve; also: potency is read from the fitted curve at half-maximal effect); details: ME-180 (cervical carcinoma) AP-1-bla reporter, beta-lactamase FRET ratio, 5 h; activation: at 76.8 µM (top of the series) unless noted
# [16] = biological target: Bile acid receptor (Homo sapiens) (UniProt Q96RI1); assay: qHTS assay to identify small molecule antagonists of the farnesoid-X-receptor (FXR) signaling pathway (AID 743217; active = well fitted inhibition curve with a large enough effect in the signal ratio in the repeat runs, not every such curve was filed as active; inconclusive = weak or mixed curves, or effect the other way; inactive = no such curve, though single readings can be large or run the other way; the % refers to the signal ratio; also: % is scaled to controls: 0 for no effect and ±100 for the full control effect); details: HEK293T FXR-UAS-bla, beta-lactamase ratio, CDCA-stimulated, 16 h; activity change, negative = inhibition: at 62.6 µM (top of the series) unless noted
# In short: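 FRET fluorescence after 2 h room-temperature LiveBLAzer loading gives the readout. Prior step: FXR-bla HEK 293T cells, seeded and incubated 5 h, received test compounds plus 50 uM final CDCA for 16 h at 37 °C.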
# [17] = qHTS assay to identify small molecule agonists of the vitamin D receptor (VDR) signaling pathway - cell viability counter screen (AID 743224); details: VDR-bla HEK293T viability, CellTiter-Glo luminescence, 16 h; activity change, negative = cytotoxicity: at 62.6 µM (top of the series); also: nearly all actives have a fitted effect of over 50% in size; also: potency is read from the fitted curve at half-maximal effect
# In short: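 In parallel with the bla FRET readout, cytotoxicity toward VDR-bla cells after 16 h compound exposure was assessed by CellTiter-Glo, with luminescence recorded after a 30 min room-temperature incubation.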
# [18] = qHTS assay to identify small molecule antagonists of the peroxisome proliferator-activated receptor delta (PPARd) signaling pathway - cell viability counter screen (AID 743213); details: PPARd-bla HEK293H viability, CellTiter-Glo luminescence, 17 h; viability change, negative = cytotoxic: at 62 µM (top of the series) unless noted
# In short: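 Cytotoxicity counter screen: CellTiter-Glo luminescence read 30 min after addition, in the same wells as the reporter assay. There, PPARd UAS-bla HEK293H cells (3000/well) were treated 17 h at 37 C with compound and 300 nM L165041.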
# [19] = qHTS assay to identify small molecule antagonists of the retinoid acid receptor (RAR) signaling pathway - cell viability counter screen (AID 1159551); also: potency is read from the fitted curve at half-maximal effect; nearly all actives have a fitted effect of over 35% in size
# In short: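 Viability of C3RL4 cells is quantified from ATP by luminescence after 6 h treatment at 37 C with compounds and 1 uM retinol.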
# Tags tell the direction and shape of the fitted curve or compound fluorescence and quenching.
# UniProt P11473, sequence (P11473 whole entry, looked up): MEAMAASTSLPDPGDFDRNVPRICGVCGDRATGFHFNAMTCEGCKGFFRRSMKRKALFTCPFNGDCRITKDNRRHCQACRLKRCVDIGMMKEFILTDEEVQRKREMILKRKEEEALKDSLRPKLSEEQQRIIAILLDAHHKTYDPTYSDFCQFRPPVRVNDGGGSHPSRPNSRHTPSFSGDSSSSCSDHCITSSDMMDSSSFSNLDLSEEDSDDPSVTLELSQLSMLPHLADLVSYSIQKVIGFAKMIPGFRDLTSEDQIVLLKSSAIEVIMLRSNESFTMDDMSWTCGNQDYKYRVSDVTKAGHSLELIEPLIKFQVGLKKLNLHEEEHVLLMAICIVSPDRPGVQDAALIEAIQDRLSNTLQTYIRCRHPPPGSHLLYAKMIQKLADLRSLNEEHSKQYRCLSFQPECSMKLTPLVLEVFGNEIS
# UniProt Q96RI1, sequence (Q96RI1 whole entry, looked up): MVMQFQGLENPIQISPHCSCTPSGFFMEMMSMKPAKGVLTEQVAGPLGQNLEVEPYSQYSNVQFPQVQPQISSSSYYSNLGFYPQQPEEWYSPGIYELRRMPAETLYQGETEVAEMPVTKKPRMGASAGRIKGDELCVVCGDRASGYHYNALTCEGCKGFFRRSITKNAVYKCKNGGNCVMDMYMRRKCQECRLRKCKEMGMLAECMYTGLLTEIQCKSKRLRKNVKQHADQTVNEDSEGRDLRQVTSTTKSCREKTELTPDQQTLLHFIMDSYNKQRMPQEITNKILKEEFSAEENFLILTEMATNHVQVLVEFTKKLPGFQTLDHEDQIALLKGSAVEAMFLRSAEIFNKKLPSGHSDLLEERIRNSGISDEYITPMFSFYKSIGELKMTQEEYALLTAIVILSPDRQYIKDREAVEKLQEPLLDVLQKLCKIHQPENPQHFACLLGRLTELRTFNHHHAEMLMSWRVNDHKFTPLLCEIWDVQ
# UniProt P19793, sequence (P19793 whole entry, looked up): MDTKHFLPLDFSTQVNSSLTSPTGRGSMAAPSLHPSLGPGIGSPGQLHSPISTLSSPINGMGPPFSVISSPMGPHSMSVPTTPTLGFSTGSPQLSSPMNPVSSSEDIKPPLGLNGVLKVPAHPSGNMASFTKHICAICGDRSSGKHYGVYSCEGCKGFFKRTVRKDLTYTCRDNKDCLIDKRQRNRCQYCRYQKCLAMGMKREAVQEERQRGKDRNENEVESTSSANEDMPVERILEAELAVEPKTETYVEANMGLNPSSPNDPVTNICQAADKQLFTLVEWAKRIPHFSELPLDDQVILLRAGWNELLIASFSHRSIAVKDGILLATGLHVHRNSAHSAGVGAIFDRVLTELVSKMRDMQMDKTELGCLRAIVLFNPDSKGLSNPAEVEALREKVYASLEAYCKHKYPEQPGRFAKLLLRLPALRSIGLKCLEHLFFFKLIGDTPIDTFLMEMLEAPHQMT
# UniProt Q03181, sequence (Q03181 whole entry, looked up): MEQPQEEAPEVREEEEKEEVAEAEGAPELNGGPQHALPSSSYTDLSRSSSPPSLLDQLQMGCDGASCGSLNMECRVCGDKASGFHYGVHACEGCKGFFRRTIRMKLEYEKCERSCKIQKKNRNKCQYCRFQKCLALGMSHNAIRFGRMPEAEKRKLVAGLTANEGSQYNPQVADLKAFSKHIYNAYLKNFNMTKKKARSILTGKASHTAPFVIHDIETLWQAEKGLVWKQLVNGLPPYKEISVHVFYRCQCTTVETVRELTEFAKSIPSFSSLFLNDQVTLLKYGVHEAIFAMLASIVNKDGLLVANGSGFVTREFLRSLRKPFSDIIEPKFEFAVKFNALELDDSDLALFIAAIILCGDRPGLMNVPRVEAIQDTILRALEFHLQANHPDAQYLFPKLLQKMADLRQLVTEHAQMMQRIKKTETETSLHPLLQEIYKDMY
smiles,measurement,setting,value
O=C1OC(=O)c2cc([N+](=O)[O-])ccc21,Potency,[1],inactive
same,Potency,[2],inactive
same,Potency,[3],inactive
same,Potency,[4],inactive
same,Potency,[5],inactive
CCC(C)COC(=O)CC(C)C (stereo not given),activation,[1],inconclusive: 5.12%
same,Potency,[6],active: 24.5 µM
same,Potency,[7],"inconclusive: 30.9 µM [falling, partial curve]"
same,Potency,[8],inactive
same,Potency,[9],inactive
same,"viability change, negative = cytotoxic",[10],inconclusive: -32.4% [cytotoxic]
same,activation,[3],inconclusive: -0.221%
same,Potency,[11],"inconclusive: 54.5 µM [inhibitor, partial curve]"
same,Potency,[12],"inconclusive: 34.7 µM [cytotoxic, partial curve]"
same,Potency,[5],"inconclusive: 21.9 µM [fluorescent, partial curve, poor fit]"
same,Potency,[13],"inconclusive: 19.5 µM [cytotoxic, full curve]"
CN(C)/N=N/c1nc[nH]c1C(N)=O,Potency,[1],inactive
same,activation,[14],inconclusive: -3.58%
same,Potency,[3],"inconclusive: 22.2 µM [rising, partial curve, poor fit]"
same,Potency,[4],"inconclusive: 78.1 µM [rising, partial curve, poor fit]"
same,Potency,[15],inactive
OCCCCCCCCCCCCBr,"ratio activity, negative = inhibition",[2],inconclusive: -20% [at 80.4 µM]
same,"activity change, negative = inhibition",[16],inconclusive: -34.4% [at 81.1 µM]
same,Potency,[14],inactive
same,Potency,[17],inactive
same,Potency,[3],"inconclusive: 62.6 µM [falling, single point]"
same,Potency,[4],"inconclusive: 17.5 µM [cytotoxic, partial curve, poor fit]"
same,Potency,[15],inactive
same,Potency,[5],inconclusive: 7.88 µM
same,Potency,[13],"inconclusive: 11.1 µM [cytotoxic, single point]"
NNc1nc(-c2ccccc2)cs1,Potency,[1],"inconclusive: 25.2 µM [rising, partial curve, poor fit]"
same,Potency,[6],active: 2.52 µM
same,Potency,[7],"inconclusive: 22.5 µM [falling, single point]"
same,activation,[8],inconclusive: -26% [at 81.1 µM]
same,Potency,[17],"inconclusive: 15.9 µM [cytotoxic, partial curve]"
same,Potency,[10],"inconclusive: 1.13 µM [rising, full curve, poor fit]"
same,Potency,[3],"inconclusive: 56.5 µM [cytotoxic, partial curve]"
same,Potency,[4],"inconclusive: 56 µM [cytotoxic, partial curve, poor fit]"
same,Potency,[15],"inconclusive: 22.5 µM [falling, partial curve]"
same,Potency,[13],"inconclusive: 25.2 µM [cytotoxic, partial curve, poor fit]"
O=C1C(=O)c2ccccc2C(O)=C1C1CCC(c2ccc(Cl)cc2)CC1 (stereo not given),Potency,[1],inconclusive: 15 µM
same,Potency,[2],inconclusive: 13.3 µM
same,Potency,[16],inactive
same,Potency,[6],"inconclusive: 7.5 µM [cytotoxic, single point]"
same,Potency,[7],"inconclusive: 13.3 µM [falling, single point]"
same,activation,[8],inconclusive: -23.3%
same,Potency,[17],"inconclusive: 5.96 µM [cytotoxic, full curve]"
same,Potency,[10],active: 5.35 µM
same,Potency,[3],"inconclusive: 2.39 µM [rising, full curve, poor fit]"
same,Potency,[4],"inconclusive: 13.3 µM [cytotoxic, partial curve, poor fit]"
same,Potency,[15],inconclusive: 12 µM
same,Potency,[5],"inconclusive: 0.848 µM [inhibitor, full curve]"
COc1ccc(C(=O)c2ccc(OC)cc2O)c(O)c1,Potency,[18],"inconclusive: 0.175 µM [cytotoxic, full curve, poor fit]"
same,"ratio activity, negative = inhibition",[2],inconclusive: -31.6% [at 80.4 µM]
same,Potency,[9],inactive
same,Potency,[17],"inconclusive: 55.3 µM [cytotoxic, partial curve, poor fit]"
same,Potency,[3],inactive
same,Potency,[4],"inconclusive: 54.9 µM [cytotoxic, partial curve, poor fit]"
same,activation,[5],inconclusive: -9.37%
C[Si](NC1CCCCC1)(NC1CCCCC1)NC1CCCCC1,Potency,[14],inactive
same,Potency,[7],inconclusive: 43.6 µM
same,Potency,[3],inactive
same,Potency,[11],"inconclusive: 48.6 µM [inhibitor, partial curve, poor fit]"
same,Potency,[12],"inconclusive: 61.6 µM [cytotoxic, partial curve, poor fit]"
same,Potency,[5],inconclusive: 43.6 µM [activator]
same,Potency,[13],"inconclusive: 38.9 µM [cytotoxic, partial curve]"
O=[N+]([O-])C1(Br)COCOC1,Potency,[18],"inconclusive: 54.9 µM [cytotoxic, single point]"
same,"activity change, negative = inhibition",[16],inconclusive: -30.9%
same,Potency,[8],inactive
same,Potency,[9],inconclusive: 49 µM
same,Potency,[3],inconclusive: 54.9 µM
same,Potency,[4],active: 24.3 µM
same,Potency,[5],inconclusive: 43.6 µM [partial curve]
same,Potency,[13],"inconclusive: 24.5 µM [cytotoxic, partial curve, poor fit]"
same,Potency,[19],inconclusive: 61.1 µM [cytotoxic]

# Source: PubChem BioAssay (Tox21)
